# Laboratory results from PMC4336329 (PLoS ONE, 2015).
# About 2,200 (0.71%) of roughly 310,000 compounds showed an effect of 50% or more. Effects have a minus sign here. The list shows a part of the results.
# Target: human ether-à-go-go-related gene (hERG) potassium channel (human, UniProt Q12809)
# Assay: primary screen, population patch clamp on CHO cells stably expressing hERG
# Chain of human ether-à-go-go-related gene (hERG) potassium channel (Q12809 whole entry, looked up): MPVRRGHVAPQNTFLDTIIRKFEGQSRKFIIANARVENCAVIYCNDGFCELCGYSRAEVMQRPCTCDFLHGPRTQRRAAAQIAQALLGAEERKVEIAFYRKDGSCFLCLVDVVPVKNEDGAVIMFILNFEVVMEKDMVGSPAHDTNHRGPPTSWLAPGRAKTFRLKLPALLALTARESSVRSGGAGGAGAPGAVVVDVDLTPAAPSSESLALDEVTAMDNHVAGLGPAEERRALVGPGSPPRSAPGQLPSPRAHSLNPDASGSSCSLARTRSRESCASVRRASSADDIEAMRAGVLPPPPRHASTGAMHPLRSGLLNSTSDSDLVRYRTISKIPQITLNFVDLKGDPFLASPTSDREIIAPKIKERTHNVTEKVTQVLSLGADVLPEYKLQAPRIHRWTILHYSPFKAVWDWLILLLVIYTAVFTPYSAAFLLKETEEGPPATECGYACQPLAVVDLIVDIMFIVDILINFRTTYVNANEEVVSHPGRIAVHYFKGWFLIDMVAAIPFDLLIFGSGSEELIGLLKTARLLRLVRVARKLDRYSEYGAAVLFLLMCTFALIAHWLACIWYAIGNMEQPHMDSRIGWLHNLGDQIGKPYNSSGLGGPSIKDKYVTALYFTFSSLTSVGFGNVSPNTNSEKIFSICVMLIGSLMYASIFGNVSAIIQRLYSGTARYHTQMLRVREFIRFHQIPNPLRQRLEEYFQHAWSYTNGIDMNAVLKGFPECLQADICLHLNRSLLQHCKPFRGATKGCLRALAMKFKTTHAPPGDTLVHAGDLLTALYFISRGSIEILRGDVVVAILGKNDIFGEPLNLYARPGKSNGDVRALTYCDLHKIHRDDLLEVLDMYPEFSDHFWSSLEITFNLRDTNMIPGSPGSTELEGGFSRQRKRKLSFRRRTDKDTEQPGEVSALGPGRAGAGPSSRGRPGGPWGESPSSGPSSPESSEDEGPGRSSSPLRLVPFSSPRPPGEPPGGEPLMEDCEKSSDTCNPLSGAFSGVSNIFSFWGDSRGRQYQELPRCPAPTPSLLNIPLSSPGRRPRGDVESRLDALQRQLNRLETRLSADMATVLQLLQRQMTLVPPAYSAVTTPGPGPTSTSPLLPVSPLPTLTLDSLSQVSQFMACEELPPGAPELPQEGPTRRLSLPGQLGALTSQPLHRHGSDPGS
row,SMILES,"hERG current change (%, negative = inhibition) at 1uM"
1,Cc1ccc(NC(=O)CNC(=O)c2cccs2)c(O)c1,8.28%
2,Cc1ccc(S(=O)(=O)NC(CN2CCOCC2)=NCCNS(=O)(=O)c2ccccc2)cc1,3.7%
3,Fc1ccc(-c2nc3ccccc3c3nc4ccccc4n23)cc1,7.31%
4,CC(=O)Nc1cccc(-c2nc3ccccc3s2)c1C,5.61%
5,CCC(=O)N1N=C(c2cccs2)CC1c1ccc(OC)cc1 (stereo not shown),19.2%
6,Cc1ccccc1C(=O)N1CCC(C(=O)N(C)CC(=O)Nc2cccc(F)c2)CC1,8.14%
7,CCN(CC)P(=O)(c1n(CC)cc[n+]1CC)N(CC)CC.[I-],-4.93%
8,NC(=O)COC(=O)c1cccc(S(=O)(=O)N2CCCCC2)c1,1.02%
9,O=C(NCCCN1CCOCC1)c1ccccc1NS(=O)(=O)c1ccc(F)cc1,3.45%
10,CN1C=CC=C/C1=C(\C#N)c1nc2ccccc2[nH]1,4.01%
11,O=C(NNS(=O)(=O)c1cccc(Cl)c1Cl)c1cccc(S(=O)(=O)N2CCOCC2)c1,7.43%
12,COc1cccc(C2C3=C(CC(C)(C)CC3=O)OC(N)=C2[N+](=O)[O-])c1 (stereo not shown),7.19%
13,COc1ccc(CNC(=O)[C@H](C)[C@@H]2C[C@@]2(C)[C@@H](NC(=O)OCc2ccccc2)c2ccccc2)cc1OC,8.8%
14,OC1COC(OCc2ccccc2)C(O)C1O (stereo not shown),14.7%
15,N=C(N)n1c(N)nc2ccccc2c1=O,16.2%
16,c1ccc(N2CCN(c3nc4cc5c(cc4s3)OCO5)CC2)cc1,6.09%
17,Cc1ccc(-n2c(SCC(N)=O)nnc2-c2ccccn2)cc1,6.32%
18,COc1ccc(N)cc1-n1c(C)ccc1C,-2.58%
19,COc1ccc(S(=O)(=O)NC(C)CCc2ccccc2)cc1 (stereo not shown),8.58%
20,COC(=O)c1c(C)[nH]c(C(=O)/C=C/c2ccccc2F)c1C,6.87%
21,CCn1nc(C)cc1Nc1ccccc1,-9.86%
22,CN1CCN(C(=O)c2ccc(CS(=O)Cc3ccc(Cl)cc3)o2)CC1 (stereo not shown),13.9%

row,SMILES,"hERG current change (%, negative = inhibition) at 1uM"
1,CCOc1ccc(CN2CCN(Cc3c[nH]c4ccccc34)CC2)cc1.O=C(O)C(=O)O,-85.8%
2,CCSC1=NCCN1S(=O)(=O)c1ccccc1,8.02%
3,CNC(=O)C(=O)Nc1cc2c3c(c1)C(C)C(=O)N3CCC2 (stereo not shown),14.2%
4,CN(CC(=O)Nc1ccc(F)cc1)C(=O)CCc1ccccc1,14.1%
5,CCC(C)C(=O)Nc1nc(C)c(-c2csc(Nc3cc(OC)ccc3OC)n2)s1 (stereo not shown),11.1%
6,O=C(O)C1CC(=O)N(c2ccc(OCc3ccc(Cl)cc3Cl)cc2)C1 (stereo not shown),-4.61%
7,CN1CCN(C(=O)c2ccc(Oc3ccc([N+](=O)[O-])cc3)cc2)CC1,-11.7%
8,Cc1ccc(S(=O)(=O)N/N=C/c2ccc(O)c(O)c2)cc1[N+](=O)[O-],6.5%
9,Cc1ccc[n+](/C(C(=S)NCc2ccco2)=C(/[O-])c2ccccc2Cl)c1,-22.6%
10,CN1CCC(O)(c2ccc(Cl)cc2)C(C(=O)c2ccc(Cl)cc2)C1 (stereo not shown),-19.3%
11,O=C(COC(=O)c1cccnc1)c1ccc(Cl)cc1,9.62%
12,Cc1onc(-c2ccccc2)c1C(=O)N/N=C/c1cc(Br)c(Br)o1,16%
13,CS(=O)(=O)N1CCC(C(=O)Nc2cccc(Br)c2)CC1,6.81%
14,CN1CCN(C(=O)CN(C2CCCCC2)S(=O)(=O)c2ccc(Br)cc2)CC1,13.8%
15,COc1cc(CO)ccc1OCC(=O)N1CCc2ccccc21,10.7%
16,O=C(O)Cn1cc(/C=C2\C(=O)NC(=O)N(c3ccc(F)cc3)C2=O)c2ccccc21,10.1%
17,Cc1ccc2nc(Cl)c(C3CC(c4cccs4)=NN3S(C)(=O)=O)cc2c1 (stereo not shown),8.28%
18,COc1ccc(Cl)cc1C(=O)NCCN(C)C,11.5%
19,COc1cc2cc(CN(CCCN3CCOCC3)C(=O)Nc3ccc(F)cc3)c(=O)[nH]c2cc1OC,6.72%
20,COC(=O)Nc1cc(C(=O)c2ccc(Cl)cc2Cl)c[nH]1,7.21%
21,CCOC(=O)C1=C(C)NC(C)=C(C(=O)OCC)C1c1ccc(OC)cc1,10%
22,CC(C)(C)C(=O)Nc1ccc(C(=O)CSc2nnc(C3CC3)n2C2CC2)cc1,8.79%

row,SMILES,"hERG current change (%, negative = inhibition) at 1uM"
1,CCOC(=O)C1CCCN(Cc2sccc2C)C1 (stereo not shown),-4%
2,O=C(CNS(=O)(=O)c1ccccc1)OCC(=O)c1ccc(F)cc1,15.5%
3,Cl.O=C(c1cc2c(s1)CCCC2)N1CCN(Cc2ccc3c(c2)OCO3)CC1,9.38%
4,Cc1cc(C)c(NC(=O)C2CC(=O)N(c3ccc4c(c3)OCCO4)C2)c(C)c1 (stereo not shown),7.68%
5,Cc1cccc(Nc2nc(N)nc(CC(=O)CSc3ccc(Cl)cc3)n2)c1,10%
6,O=C(NCc1cccc(F)c1)C1CCC(=O)N(CCc2cccc(F)c2)C1 (stereo not shown),4.23%
7,CCOCCCNC(=S)NCCc1ccccc1,19.8%
8,Cc1ncc(CO)c(/C=N/NC(=S)Nc2ccc(Cl)c(Cl)c2)c1O,9.36%
9,Cc1ccc(C)c(S(=O)(=O)N2CCN(C(=O)C(C)Sc3ccccc3)CC2)c1 (stereo not shown),9.62%
10,O=c1cc(-c2ccco2)nc(SCc2cccc(Cl)c2)[nH]1,14.5%
11,O=C(CN1C(=O)CC(c2ccco2)Sc2ccccc21)Nc1ccc2c(c1)OCCO2 (stereo not shown),2.94%
12,COc1ccc(S(=O)(=O)NCCSCc2cccc(C)c2)cc1Br,7.76%
13,Fc1ccc(CSc2ccc3nnc(-c4cccnc4)n3n2)cc1,-31.8%
14,Cc1ccc(C)c(S(=O)(=O)N2CCN(C(=O)[C@@H]3CCCN3C(=O)c3cccs3)CC2)c1,8.19%
15,CCCc1nc(SCC(=O)N2c3ccccc3CC2C)c2c(C)c(C)sc2n1 (stereo not shown),13.5%
16,O=C(CSC(=S)N1CCOCC1)Nc1ncc2c(n1)CC(c1ccco1)CC2=O (stereo not shown),12%
17,CCOC(=O)c1ccc(Oc2coc3cc(O)ccc3c2=O)cc1,18.1%
18,COc1ccc(-c2nnc(N(C)C(=O)c3cccnc3)s2)cc1,8.01%
19,N#Cc1c2n(c(=S)n(-c3ccc(F)cc3)c1=O)CCCCC2,15.7%
20,COc1cc2c(cc1OC)C(C)N(C(=O)c1cc3ccccc3o1)CC2 (stereo not shown),4.61%
21,O=C(NC1CC1)C1CCN(c2ncccn2)CC1,10.3%
22,CN(CC(=O)NNC(=O)Cc1ccccc1F)S(=O)(=O)c1ccc(Cl)cc1,8.43%

row,SMILES,"hERG current change (%, negative = inhibition) at 1uM"
1,Cc1ccc(NC2CCCN(C(=O)c3cn4cc(Cl)ccc4n3)C2)cc1C (stereo not shown),12%
2,O=c1[nH]n(-c2ccccc2Cl)c(=O)c2ccccc12,15.2%
3,COc1ccc(-c2nnc(COc3ccc4ccccc4c3)o2)cc1OC,15.3%
4,CCC1(c2ccccc2)NC(=O)N(CC(=O)N(C)CC(=O)Nc2c(C)cccc2C)C1=O (stereo not shown),10.3%
5,CC(C)NC(=O)NC(=O)COC(=O)c1ccc([N+](=O)[O-])cc1Cl,-7.21%
6,CCOC(=O)c1c(NC(=O)CN2C(=O)CN(C)C2=O)sc(C)c1C,11%
7,CC(=O)c1ccc(N2CCN(C(=O)CCCn3c(=O)[nH]c4ccccc4c3=O)CC2)cc1,7.45%
8,CC(=O)C1=C(O)C(=O)N(CCC(=O)O)C1c1ccccc1Cl (stereo not shown),7.48%
9,COc1cc(/C=N/NC(=O)C(=O)NCC2CCCO2)cc(Cl)c1O (stereo not shown),22.2%
10,O=C(NC1CC1)C1=C[C@@H](c2ccccc2)C[C@@H](OCCCCO)O1,14.9%
11,COc1ccc(NS(=O)(=O)c2c(C(=O)N3CCCCCC3)c(C)n(C)c2C)cc1OC,13%
12,O=C(Nc1cc(C(F)(F)F)ccc1-n1cncn1)c1ccc(Br)cc1,0.412%
13,COc1ccc(C2C(C#N)=C(C)NC3=C2C(=O)CC(C)(C)C3)c(OC)c1 (stereo not shown),-3.94%
14,CCOc1ccc(N2CC(C(=O)Nc3ccc(S(=O)(=O)Nc4nccs4)cc3)CC2=O)cc1 (stereo not shown),15.7%
15,COC(=O)c1cc(Sc2cccc(Cl)c2Cl)ccn1,-5.02%
16,Cc1ccc(S(=O)(=O)N(CC(=O)N/N=C/c2ccco2)c2cc(Cl)cc(Cl)c2)cc1,-0.0047%
17,CCCc1nc(SCC(=O)NCc2ccco2)c2c(=O)n(C)c(=O)n(C)c2n1,15.1%
18,Cn1nc(-c2ccc3c(c2)OCCO3)c2ccccc2c1=O,10%
19,COC(=O)c1[nH]c2ccccc2c1NC(=O)CN1CCC(C(N)=O)(N2CCCCC2)CC1,-3.13%
20,CCOC(=O)Cc1cc(=O)n2[nH]c(C)c(-c3ccccc3OC)c2n1,7.37%
21,O=[N+]([O-])c1cccnc1NCCc1c[nH]c2ccccc12,10%
22,CCn1c(=O)n(CC)c2cc(S(N)(=O)=O)c(C)cc21,13.4%
